# From PubChem BioAssay AID1508642 (National Center for Advancing Translational Sciences (NCATS), 2021)
# Screen size: about 43,000 compounds; about 200 (0.47%) were called active. Inconclusive results (about 12%) are left out. Calls come from the whole dose curve; as a rule, active = well fitted cell-killing curve with a large enough effect; inconclusive = small, poorly fitted or top-dose-only effect, or effect the other way; inactive = flat fitted curve, though single readings scatter. The list shows a part of the results.
# Test: Cell viability qHTS assay in S16 Pmp22-F2sN cells; note: nearly all actives have a fitted effect of over 65% in size
# Details: S16 Pmp22-F2sN Schwann cells (luciferase reporters placed in the Pmp22 gene) viability, CellTiter-Glo, 24 h; series mostly up to 57.5 µM; activity change, negative = cytotoxicity: at the top concentration
# How it was run: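 Seed 500-1,000 S16 Pmp22-F2sN cells per well in phenol-red-free DMEM with 10% heat-inactivated FBS; pin-add 23 nL compound; incubate 24 h at 37C; add CellTiter-Glo, wait 15 min protected from light; read luminescence.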
# % is set by controls: 0 for no effect and ±100 for the full control effect.
row,SMILES,"activity change, negative = cytotoxicity"
1,COc1ccc(C(CNC(=O)c2oc3cc(C)c(Cl)cc3c2C)N2CCCCC2)cc1 (stereo unspecified),inactive: 4.49%
2,Cn1c(=O)c(=O)n(C)c2cc(C(=O)NCc3ccccc3Cl)ccc21,inactive: 4.35%
3,COC(=O)c1scc(-c2ccc(C)cc2)c1S(=O)(=O)N1CCN(c2ccc(C)cc2C)CC1,inactive: -1.13%
4,COc1ccc(C(=O)NCc2ccc3c(c2)CCN3C(=O)c2ccccc2)cc1,inactive: 3.67%
5,CCc1ccc2oc(-c3ccc(NC(=O)c4cc5ccccc5o4)cc3)nc2c1,inactive: 7.74%
6,CCCNC(=O)CCCN1C(=O)CCn2nc(-c3cccn3C)cc21,inactive: -5.64%
7,COCCCNC(=O)c1sc2nc(C)c(C(=O)Nc3ccc(C)cc3C)c(-c3ccccc3Cl)c2c1N,inactive: -29.1%
8,COCCNC(=O)c1nn(-c2ccc(C)cc2)c(=O)n(C)c1=O,inactive: -0.143%
9,COc1ccc(NS(=O)(=O)c2ccc(-c3cnc(C4CC4)o3)cc2)cc1Cl,inactive: -14.5%
10,O=C(CCSCc1cnn(-c2ccccc2)c1-n1cccc1)NCc1ccccc1Cl,inactive: -0.239%
11,CCn1c(C(=O)NCc2ccccc2Br)cc2oc3ccccc3c21,inactive: 5.35%
12,CCCn1cnc2cc(NCc3ccccc3OCC)ccc21,inactive: 2.92%
13,COC(=O)c1ccc(C(=O)OC)c(NC(=O)c2cc3nc(-c4ccc(C)cc4)cc(C(F)(F)F)n3n2)c1,inactive: 2.41%
14,CCCNC(=O)Cn1c(=O)c2cccn2c2cccnc21,inactive: 0.183%
15,CCCNC(=O)C1Cc2cc(S(=O)(=O)N3CCCCCC3)ccc2N1C(C)=O (stereo unspecified),inactive: 6.61%
16,Cc1ccccc1OCc1nc2ccccc2n1Cc1ccccc1Cl,inactive: 3.75%
17,COc1ccc(C2=NS(=O)(=O)N(C)C(C(=O)N(C)Cc3ccccc3)=C2)cc1OC,inactive: -5.68%
18,CCS(=O)(=O)N1CCc2cc(C(=O)Nc3cccc(C(C)=O)c3)ccc21,inactive: 0.112%
19,CCCOc1cccc(C2c3c(-c4ccccc4O)n[nH]c3C(=O)N2Cc2ccco2)c1 (stereo unspecified),inactive: -1.94%
20,CC(=O)c1ccc(NC(=O)CSc2cn(CC(=O)N(C(C)C)C(C)C)c3ccccc23)cc1,inactive: -9.87%
21,CCCCn1cc(S(=O)(=O)c2ccc(OC)cc2)c(=O)c2cc(F)c(N3CCOCC3)cc21,inactive: -22.9%
22,COc1ccc(CCNC(=O)CCc2c(C)nc3c4cccnc4nn3c2C)cc1OC,inactive: -0.669%
23,Cc1c(C(=O)OCC2CCCCC2)[nH]c2c1C(=O)CC(c1ccccc1Cl)C2 (stereo unspecified),inactive: -13.5%
24,CCc1ccc(-n2nc(C)c3c(C)cc(=O)n(CC(=O)Nc4cc(C)ccc4C)c32)cc1,inactive: -23.1%

row,SMILES,"activity change, negative = cytotoxicity"
1,COc1ccc(NC(=O)c2ncn(-c3ccccc3)n2)cc1Cl,inactive: -9.8%
2,Cc1ccc(Cn2c(=O)n(CCCCC(=O)NCc3ccc4c(c3)OCO4)c(=O)c3ccccc32)cc1,inactive: -4.87%
3,COc1cccc(N2CCN(C3=NS(=O)(=O)C(c4ccc(C)cc4)=C3C)CC2)c1,inactive: 0.451%
4,CCC(Sc1nnc2c(n1)[nH]c1ccccc12)C(=O)Nc1ccccc1OC (stereo unspecified),inactive: -3.92%
5,Cc1cc(C)cc(C(=O)NCCc2csc(-c3ccc(C(F)(F)F)cc3)n2)c1,inactive: -9.74%
6,Cn1cc(S(=O)(=O)N2CCCC2)cc1C(=O)N1CCN(c2cccc(Cl)c2)CC1,inactive: 7.56%
7,Cc1cc(C)c(NC(=O)Cn2c(=O)n(CC3CCCO3)c(=O)c3ccccc32)c(C)c1 (stereo unspecified),inactive: 8.63%
8,Cc1cc2c(cc1NS(=O)(=O)c1ccc(NC(=O)CC(C)C)cc1)n(C)c(=O)c(=O)n2C,inactive: 1.12%
9,Cc1ccc(N2C(=O)c3n[nH]c(C)c3C2c2ccccc2Cl)cc1 (stereo unspecified),inactive: -0.279%
10,CC(=O)Nc1c(C)nn(-c2ccccc2)c1N1CCC(C(=O)Nc2cc(F)ccc2F)CC1,inactive: -5.67%
11,COc1ccccc1NC(=O)N1CCN(Cc2nc3ccc(C)cc3o2)CC1,inactive: -5.45%
12,CN(C)c1ccc(C(CNC(=O)c2ccccc2Cl)N2CCCC2)cc1 (stereo unspecified),inactive: 0.392%
13,Cc1cc(C)c(NC(=O)C2CCN(S(=O)(=O)c3c(C)noc3/C=C/c3ccccc3F)CC2)c(C)c1,inactive: 6.86%
14,COc1ccc(S(=O)(=O)c2c(Nc3ccc(C)cc3C)sc(C(=O)c3ccc(F)cc3)c2N)cc1,inactive: -2.69%
15,O=C(NCc1ccccc1)C(=O)NCC(c1cccs1)S(=O)(=O)c1cccs1 (stereo unspecified),inactive: 2.86%
16,Cc1nnsc1C(=O)Oc1ccc(Cl)cc1,inactive: 8.13%
17,CN1C(=O)Cc2cc(S(=O)(=O)NCc3ccc(Cl)cc3)ccc21,inactive: 0.12%
18,CC(C)(C)C1CCc2c(sc(NC(=O)c3ccco3)c2C(=O)Nc2ccccc2Cl)C1 (stereo unspecified),inactive: -4.4%
19,CCOc1ccc(C(=O)OCc2cc(=O)n3nc(C4CC4)sc3n2)cc1,inactive: 1.76%
20,COc1cc(Cl)c(C)cc1NC(=O)c1cc2c(=O)oc3ccccc3c2s1,inactive: 7.36%
21,COc1ccc(CNC(=O)C2=CC(c3ccc(OC)c(OC)c3)=NS(=O)(=O)N2C)cc1,inactive: 2.96%
22,Cc1cc(C(=O)N2CCN(c3cccc(Cl)c3)CC2)c2c(C)nn(-c3ccccc3Cl)c2n1,inactive: -19.9%
23,CCOCCCNC(=O)c1cn(CC)c2ccc(S(=O)(=O)N3CCOCC3)cc2c1=O,inactive: 1.5%
24,CCOC(=O)CSc1nc2ccc(NC(=O)COc3ccc(F)cc3)cc2s1,inactive: 8.17%

row,SMILES,"activity change, negative = cytotoxicity"
1,Cc1ccc(CNC(=O)C2CCN(S(=O)(=O)c3ccc4nc5c(c(C(=O)O)c4c3)CC(C)CC5)CC2)cc1 (stereo unspecified),inactive: 1.11%
2,CCc1cnc2c(c1SCC(=O)NCc1ccc(C)cc1)c(=O)n(C)c(=O)n2C,inactive: 11.9%
3,Cc1ccccc1OCC(=O)Nc1ccc(-c2nc3cc(Cl)cc(Cl)c3o2)cc1,inactive: 6.19%
4,COc1cccc(NC(=O)N(CCC(C)C)C2CCN(C(C)C)CC2)c1,inactive: 17.1%
5,CC(=O)c1ccc(NS(=O)(=O)c2ccc(Br)s2)cc1,inactive: -3%
6,COc1cccc(-n2c(=O)c3sc4ccccc4c3n(Cc3c(F)cccc3Cl)c2=O)c1,inactive: 6.14%
7,Cc1ccc(-n2nc(CO)c(C(=O)NCCC(C)C)n2)cc1C,inactive: -2.86%
8,CCc1cccc(NC(=O)CSc2nnc(-c3cc4occc4n3C)n2-c2ccccc2C)c1,inactive: -24.1%
9,Cc1ccc(CNC(=O)c2ccc(Cn3c(SCc4ccc(F)cc4)nc4cccnc43)cc2)o1,inactive: 5.25%
10,O=c1n(Cc2ccc(F)cc2)c2ccccc2c2nc(-c3ccccc3)nn12,inactive: 4.41%
11,COc1cccc(/C=C/c2nc(C#N)c(NC3CCCCC3)o2)c1,inactive: 0.0421%
12,CSc1ccc(CCNC(=O)Cn2c(C)c3cnn(-c4ccccc4)c(=O)c3c2C)cc1,inactive: 0.676%
13,Cc1ccc(N2C(=O)C(CC(=O)Nc3cccc(F)c3)N(CCc3ccccc3F)C2=O)cc1 (stereo unspecified),inactive: -8.43%
14,CCCN(C(=O)CCc1nc(-c2ccc(C)cc2)no1)c1ccc(OCC)cc1,inactive: -15.6%
15,CCOC(=O)c1c(C)oc2nc(C)nc(NCC3CCN(Cc4cc(C)ccc4C)CC3)c12,inactive: 8.95%
16,CCOC(=O)c1c(NC(=O)c2cc(-c3cccc(Cl)c3)on2)sc(C(C)=O)c1C,inactive: 2.94%
17,O=C(C1COc2ccccc2O1)N(Cc1cccnc1)c1nc2c(F)cccc2s1 (stereo unspecified),inactive: -4.54%
18,CC1CCN(S(=O)(=O)c2cc(C(=O)N3CCN(c4cccc(Cl)c4)CC3)n(C)c2)CC1,inactive: -14.1%
19,Cc1ccc(Nc2c3c(nc4nncn24)CCC3)c(C)c1,inactive: 1.89%
20,Cc1ccc(NC(=O)CN2C(=O)c3cccnc3Sc3ccccc32)c(Br)c1,inactive: 2.7%
21,Cc1ccc(NC(=O)Cn2nnc(-c3ccccc3)n2)c(C)c1,inactive: 11.5%
22,CCOc1ccc(S(=O)(=O)c2cn(CC)c3ccc(F)cc3c2=O)cc1,inactive: -17.6%
23,CCOC(=O)c1nnn(C(CC)C(=O)Nc2ccc(F)cc2)c1C(=O)OCC (stereo unspecified),inactive: -0.813%
24,COc1ccccc1C1C(C(=O)N2CCCCC2)=C(C)Nc2nc3ccccc3n21 (stereo unspecified),inactive: 22.2%

row,SMILES,"activity change, negative = cytotoxicity"
1,COc1ccc(N(CC(=O)N2CCc3ccccc3C2)S(=O)(=O)c2ccccc2)cc1,inactive: -5.22%
2,COC(=O)c1cc(NC(=O)CC2C(=O)OCCN2Cc2ccccc2)cc(C(=O)OC)c1 (stereo unspecified),inactive: 6.48%
3,COc1cccc(OCC(=O)NC2CC(=O)N(c3cccc(OC)c3)C2)c1 (stereo unspecified),inactive: 0.603%
4,Cc1ccccc1CSc1nc2c(sc3ccccc32)c(=O)n1CCCC(=O)NCCCOC(C)C,inactive: -5.24%
5,CC(C)(C)OC(=O)N1CCC(c2c(C(=O)N3CCN(C(=O)c4ccco4)CC3)cnn2-c2cccc(Cl)c2)CC1,inactive: 6.82%
6,CC(=O)c1ccc(NC(=O)c2nc(-c3ccc(Cl)cc3)n3c2CCCCC3)cc1,inactive: -1.09%
7,COCc1cc(C)nc2c1C(=O)NC(c1ccc(NC(C)=O)cc1)N2Cc1ccccc1 (stereo unspecified),inactive: 5.4%
8,CS(=O)(=O)CC[C@@H](C(=O)NCCc1ccccc1)N1Cc2ccccc2C1=O,inactive: 2.68%
9,Cc1cc(C)c2c(=O)cc(C(=O)Nc3sc4c(c3C(=O)NCc3ccco3)CCCC4)oc2c1,inactive: -0.284%
10,Cc1cccc(OCC(=O)N2CCC(c3nc4ccccc4o3)CC2)c1C,inactive: 22.6%
11,COc1ccc(NC(=O)Cn2c(=O)c3ccccc3n3nncc23)cc1Cl,inactive: -1.49%
12,CN(c1nnc(NC(=O)Nc2ccccc2C(F)(F)F)s1)C1CCCCC1,inactive: -0.188%
13,Cc1c2cnn(CC(=O)NC(C)C)c(=O)c2c(C)n1Cc1cccc(Cl)c1,inactive: 0.787%
14,COc1ccc(/C=C/c2nc(C#N)c(NCc3ccc(C)cc3)o2)cc1OC,inactive: 5.33%
15,O=C(NCCc1ccccc1)c1ccc2c(c1)N(Cc1ccc(F)cc1Cl)C(=O)CS2,inactive: 7.12%
16,CCNC(=O)c1ccc2c(c1)sc1nc(-c3cccc(OC)c3)cn12,inactive: -14.9%
17,CC(Oc1ccccc1)C(=O)Nc1cccc(-c2cn3cccnc3n2)c1 (stereo unspecified),inactive: 6.44%
18,CCc1ccc(OC(=O)CSc2nnc(-c3ccc(OC)c(OC)c3)o2)cc1,inactive: -3.41%
19,Cc1c(C(=O)OC2CCC(C)CC2)[nH]c2c1C(=O)CC(c1ccc(N(C)C)cc1)C2 (stereo unspecified),inactive: 8.73%
20,COc1ccc(S(=O)(=O)c2c(C(=O)c3ccc(C)c(C)c3)cnc3ccc(C)cc23)cc1,inactive: 1.87%
21,CCOc1nc(-c2ccccc2)ccc1-c1noc(-c2ccc(C)cc2)n1,inactive: 5.91%
22,CCOc1ccc(NC(=O)CC2C(=O)N(c3ccccc3)C(=O)N2CCc2sccc2C)cc1 (stereo unspecified),inactive: -21.8%
23,COc1ccc2c(c1)c(CC(=O)Nc1cc(C)cc(C)c1)c(C)n2C(=O)c1ccc(Cl)cc1,inactive: -2.93%
24,CCOc1cc(S(=O)(=O)NCCc2c(C)[nH]c3ccc(C)cc23)ccc1F,inactive: -5.19%
